About 800 (1.6%) of roughly 50,000 compounds showed an effect of 50% or more. This is one part of the list.
molecular target: Bcl-2-like protein 10 (Homo sapiens) (UniProt Q9HD36); assay: TR3 peptide-Bcl-B binding displacers, biochemical primary FP assay, phenotype converters (AID 1240); details: GST-Bcl-B / FITC-TR3 peptide fluorescence polarization; stronger effect = higher value; compound at 3.75 mg/L;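 further: 0% = Bcl-B with tracer peptide and DMSO and 100% = tracer peptide lacking Bcl-B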
Chain of UniProt Q9HD36 (Q9HD36 whole entry, looked up): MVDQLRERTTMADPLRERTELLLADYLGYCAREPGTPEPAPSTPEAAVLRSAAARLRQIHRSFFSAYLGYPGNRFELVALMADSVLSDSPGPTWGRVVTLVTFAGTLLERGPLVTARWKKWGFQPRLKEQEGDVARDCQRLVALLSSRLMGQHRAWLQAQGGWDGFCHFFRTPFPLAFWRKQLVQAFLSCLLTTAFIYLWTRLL

Structure (SMILES)	displacement [%]
Cc1cc2nc(-c3cc(NC(=O)/C=C/c4cccc([N+](=O)[O-])c4)ccc3O)oc2cc1C	1.6
O=C(/C=C\c1ccc(-c2cc(Cl)ccc2Cl)o1)c1ccccc1	24.9
CCOc1ccc(C(=O)Nc2cccc(-c3nc4cc(Cl)ccc4o3)c2C)cc1Br	10.2
Cc1c(Cc2ccccc2)sc(NC(=O)c2ccc([N+](=O)[O-])cc2)c1C(N)=O	65.7
N#Cc1ccccc1NC(=O)CSCCSCC(=O)Nc1ccccc1C#N	17.7
CN(C)CCNC(=O)C12CC3CCC(CC(C3)C1)C2	3.1
O=C(Nc1cccc(-c2nc3ccccc3s2)c1)c1ccc2c(c1)OCCO2	5.6
O=C1NC(=S)N(C(=O)c2ccc(F)cc2)/C1=C/c1ccc2c(c1)OCO2	-3.5
Cc1cc(OCC(=O)NCC(C)C)ccc1Br	2.5
Cc1cc(=O)oc2cc(OCC(=O)OC(C)C)c(Cl)cc12	-2.5
CCCCSc1nnc2c(n1)OC(/C=C/c1ccccc1)Nc1ccccc1-2 (stereo unspecified)	-8.1
N#Cc1ccc(NC(=O)c2ccccc2)cc1	16.1
COC(=O)c1ccc(/C=N/Nc2nncc(-c3ccccc3)n2)cc1	-9.1
COc1cc(NC(=O)c2cccs2)c(Cl)cc1NC(=O)c1ccccc1	3.5
CCOc1ccc2c(=O)c(-c3ccccc3OC)c(C(F)(F)F)oc2c1	17.4
Cc1ccc2nc(/C(C#N)=C/c3cc(Br)ccc3OCc3ccccc3)[nH]c2c1	-2.3
CCOC(=O)c1c(NC(=O)Cc2ccc(OC)cc2)sc(C(=O)Nc2ccccc2F)c1C	7.2
CCOC(=O)c1ccc2[nH]c(C)c(C)c2c1	-6.1
Clc1cccc(OCCN2CCOCC2)c1Cl	8.4
Cc1ccc(NC(=O)CN(c2ccc(C)cc2)S(=O)(=O)c2ccc(F)cc2)cc1	8
COc1ccc(-c2cc(C(F)(F)F)n3ncc(C(=O)O)c3n2)cc1	-8.2
COc1ccc(N(CC(=O)N2CCOCC2)S(=O)(=O)c2ccc(C)cc2)cc1OC	11.4
Cc1ccc(C2=N/C(=C\c3ccccc3)C(=O)O2)cc1	-7.3

Structure (SMILES)	displacement [%]
COc1cc(/C=C2/SC(=S)N(CC(=O)O)C2=O)ccc1OCc1ccccc1	1.7
COc1ccc(/C=N/NC(=O)COc2ccccc2C)cc1Cl	2.3
Nc1cc(N2CCOCC2)ccc1[N+](=O)[O-]	0.9
O=C(/C=C/c1ccco1)NCc1ccc2c(c1)OCO2	11.6
CC(C)c1ccc(OC(=O)CN2C(=O)c3ccccc3C2=O)cc1	-1.6
Cc1ccc(N(CC(=O)Nc2ccccc2C)S(=O)(=O)c2ccccc2)cc1	11.8
COc1cccc(OC)c1C(=O)Nc1cc(C)ccn1	-10.7
O=C(Cn1c(NCCO)nc2ccccc21)c1cccc([N+](=O)[O-])c1	-1.4
O=C(O)C1C2C=CC(O2)C1C(=O)Nc1nccs1 (stereo unspecified)	-7.9
COc1cc(NC(=O)/C=C/c2ccccc2)cc(OC)c1	-12.8
O=C(Nc1cccc(O)c1)c1ccc(Cl)cc1	13.4
Clc1ccc(SCCCN2CCOCC2)cc1	19.9
Cc1cc(C)c(C#N)c(SCC(=O)Nc2ccc([N+](=O)[O-])cc2)n1	-4
Cc1ccc(CNC(=O)CN(c2cccc(Cl)c2)S(=O)(=O)c2ccccc2)cc1	3.6
CCOC(=O)COc1c(C)cc(Br)cc1C	-2.3
C=C(C)Cn1c(SC)nc2sc3c(c2c1=O)CCC(C(C)(C)C)C3 (stereo unspecified)	6.7
CCOc1ccc(N(CC(=O)NCC(C)C)S(=O)(=O)c2ccc(SC)cc2)cc1	0.6
Cc1cc(C)c2oc(-c3ccc(C)c(NC(=O)c4cccs4)c3)nc2c1	46.4
O=C(Nc1ccccc1)Nc1nccs1	-2.1
Cc1ccccc1C(=O)NNC(N)=S	-6
CCOC(=O)C(CC(C)C)NC(=O)/C(=C\c1ccc(Br)cc1)NC(=O)c1ccccc1 (stereo unspecified)	-2.8
Cc1ccc(/C=N/NC(=O)c2cccnc2)o1	11.9
Cc1ccc(/C(N)=N/OC(=O)c2ccccc2Br)cc1	-1.6

Structure (SMILES)	displacement [%]
O=C(c1ccncc1)N1CCN(S(=O)(=O)c2ccc(Cl)cc2)CC1	-8.4
O=Cc1ccccc1OCc1c(F)cccc1Cl	5.7
Cc1ccccc1NC(=O)c1c(NC(=O)C(C)(C)C)sc2c1CCC(C)C2 (stereo unspecified)	-5.3
CCOc1ccc(N2C(=O)NC(=O)/C(=C\C=C\c3ccccc3)C2=O)cc1	0.6
C=CCNC(=O)CN(c1ccc(Br)cc1)S(C)(=O)=O	17.2
Cc1cc(C)c2oc(-c3ccc(NC(=O)c4cc5ccccc5o4)cc3O)nc2c1	-13.4
O=C(CSc1nnc2c(n1)[nH]c1ccccc12)N1c2ccccc2Sc2ccccc21	-4.4
O=C(CSc1ncnc2nc[nH]c12)C12CC3CC(CC(C3)C1)C2	-27.5
CCOc1ccc(C(=O)Nc2ccc(CC)cc2)cc1Br	3.2
O=S(=O)(/N=C(/Nc1ccccc1)c1ccccc1)c1ccccc1	13.3
O=C(O)c1ccccc1-c1ccccc1C(=O)Nc1ccccn1	6.6
COc1ccc(C2(CNC(=O)/C=C/c3ccco3)CCCC2)cc1OC	3.6
COc1ccccc1-n1c(O)c(C=Nc2ccccc2Cl)c(=O)[nH]c1=O	1.2
C=CCC1(O)CC(c2ccc(C)cc2)NC(c2ccc(C)cc2)C1C (stereo unspecified)	-4.3
COc1ccccc1Nc1nc(C)c([N+](=O)[O-])c(Nc2ccccc2OC)n1	8.3
COc1ccc(Cl)cc1NC(=O)Cc1ccc(Br)cc1	1.3
N#CC(C#N)=Cc1ccc(-c2cc(Cl)ccc2Cl)o1	93.5
COc1ccc2oc(=O)c(C(=O)Nn3cnnc3)cc2c1	21.8
CS(=O)(=O)c1ccc2nc(NC(=O)C3CCCCC3)sc2c1	-14.9
O=C(O)CCCN1C(=O)/C(=C/c2cn(-c3ccccc3)nc2-c2cccc([N+](=O)[O-])c2)SC1=S	14.5
COc1ccc(N/C(C)=C/C(=O)c2ccc(Cl)cc2)c(OC)c1	0.8
COc1ccc2[nH]c(C)c(CCC(=O)O)c(=O)c2c1	-8.9
CCOC(=O)c1c(N=CN(C)C)c2cc([N+](=O)[O-])cnc2n1C	2.2

Structure (SMILES)	displacement [%]
Cc1ccc(-c2nc(N/N=C/c3ccc(N(C)C)cc3)c3ccccc3n2)cc1	9.4
COc1ccc(OC)c(C2C3=C(CC(C)(C)CC3=O)OC3=C2C(=O)CC(C)(C)C3)c1	5.4
CC(C)Oc1ccc(C2CC(=O)N(c3cccc(Br)c3)C2=O)cc1 (stereo unspecified)	-6.6
CCOc1cc(OCC)cc(C(=O)Nc2ccc(C)cc2[N+](=O)[O-])c1	12.1
COc1ccc(OC)c(NC(=O)CN(c2cc(OC)ccc2OC)S(C)(=O)=O)c1	13.6
Cc1oc2ccc(OCc3ccc(Br)cc3)cc2c1C(=O)O	10.8
Cc1cccc(C(C)C)c1NC(=O)COc1ccc(Cl)cc1Cl	13.3
O=C(NCCC(CN1CCOCC1)([N+](=O)[O-])[N+](=O)[O-])c1ccccc1	-2.1
COc1ccc(C2=C(/C=C3\SC(=S)NC3=O)C(c3ccccc3)c3ccccc3O2)cc1OC (stereo unspecified)	-2.6
CC(=O)Nc1ccc(-c2cc(NC(C)=O)n(C)n2)cc1	-13.5
CCOC(=O)C1=C(NC(=O)CC)Oc2ccc3ccccc3c2C1c1ccccc1 (stereo unspecified)	-5.1
CCSc1nnc(NC(=O)c2ccc(Br)o2)s1	11
COc1cc(OC)c(OC)cc1/C=N/NC(=O)CSc1nc2ccccc2[nH]1	0.1
COc1ccc(C)cc1N(CC(=O)O)S(C)(=O)=O	0.9
CC(C)(C)c1cnc(NC(=O)c2ccccc2O)s1	5
O=C1C(=O)c2ccccc2C(O)=C1c1ccc([N+](=O)[O-])cc1	9.7
COc1ccc(N2C(=O)NC(=O)/C(=C/c3cccn3-c3cccc([N+](=O)[O-])c3)C2=O)cc1	-4
O=[N+]([O-])c1ccc(S(=O)(=O)N2CCCCCC2)cc1	-2.3
COc1cc(O)c(C(=O)c2ccccc2)cc1S(=O)(=O)O	-11.1
COCc1c(-c2ccccc2)c2cc([N+](=O)[O-])ccc2n1C	-6.8
O=C(Nc1ccc2c(c1)OCCO2)c1ccc(Br)cc1	-0.2
CCOc1cc(C=O)cc(Br)c1OCc1ccccc1Cl	-11.4
CCN(CC)S(=O)(=O)c1cc(C(N)=O)ccc1C	-7.1

Structure (SMILES)	displacement [%]
O=C(/C=C/c1cccc([N+](=O)[O-])c1)Nc1cc(Cl)ccc1Cl	3.4
CC(=O)c1ccc(NC(=S)NC(NC(=O)C(c2ccccc2)c2ccccc2)C(Cl)(Cl)Cl)cc1 (stereo unspecified)	21.3
CCOC(=O)C1=C(O)/C(=C\c2ccc(F)cc2)N=C1C	5.2
CC1(C)CC(=O)C2=C(C1)OC1=C(C(=O)CC(C)(C)C1)C2c1cccc(O)c1	-8.5
CCN1C(=O)/C(=C\c2ccc(-c3ccc(C(=O)O)cc3)o2)N(CC)C1=S	-28.4
CCOC(=O)c1sc(NC(=O)CCc2ccccc2)nc1C	1.8
COc1cccc(/C=C2/SC(=O)N(CNc3ccc(I)cc3)C2=O)c1	-3.8
CCOC(=O)C1=C(O)/C(=C/N(C)C)SC1=Nc1cccc2ccccc12	6.8
C/C(=N\NC(=O)c1cccnc1)c1ccc2ccccc2c1	5.8
COc1cc(C=C2C(=O)NC(=O)NC2=O)ccc1OC(C)C	11.8
O=C(CSc1nc2ccccc2s1)Nc1ncccn1	57.1
O=C1/C(=C/c2ccccc2OCc2ccc([N+](=O)[O-])cc2)SC(=S)N1c1ccccc1	12.7
CC(=O)c1cccc(NC(=O)c2ccc(N(Cc3ccc(Cl)cc3)S(C)(=O)=O)cc2)c1	24.6
COC(=O)c1ccc(OCC(O)CN2CCOCC2)cc1 (stereo unspecified)	-9.7
O=C(CCN1C(=O)/C(=C/c2ccc(F)cc2)SC1=S)Nc1ccc(F)c(Cl)c1	14.1
Cc1ccc2nsnc2c1NC(=O)c1cccc(Cl)c1	0.8
O=C1c2ccccc2C(=O)N1c1ccc(-c2nc3ccccc3c(=O)o2)cc1	-7.1
CC1(C)CC2(C=CC(=O)C=C2)C(SCc2ccccc2)=N1	-4.1
COc1ccc(N2CC(C(=O)N/N=C/c3c[nH]c4ccccc34)CC2=O)cc1 (stereo unspecified)	-3.6

From PubChem BioAssay AID1240 (Sanford-Burnham Center for Chemical Genomics, 2008)
